Data as given in PubChem BioAssay AID886 (National Center for Advancing Translational Sciences (NCATS), 2007).
The whole screen tested about 73,000 compounds, of which about 2,500 (3.4%) were called active. Inconclusive means that the source gave no clear call. Such entries were picked first, then a sample of the others. Calls follow the shape of the dose curve; as a rule, active = well fitted inhibition curve with a large enough effect; inconclusive = small, poorly fitted or top-dose-only effect; inactive = no such curve, though single readings can be large or run the other way. Potencies of inconclusive entries are doubtful fits and often do not repeat.

Biological target: 3-hydroxyacyl-CoA dehydrogenase type-2 (Homo sapiens) (UniProt Q99714)
Assay: qHTS Assay for Inhibitors of HADH2 (Hydroxyacyl-Coenzyme A Dehydrogenase, Type II); also: nearly all actives have a fitted effect of over 60% in size
Settings: recombinant HADH2, NADH fluorescence, beta-hydroxybutyryl-CoA; activity change, negative = inhibition: at 57.1 µM (top of the series)
Outline: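 E. coli-expressed His-tagged HADH2 tested at 20 nM in alkaline Tris buffer (pH 9.0); oxidation of 90 uM beta-hydroxybutyryl-CoA with 1 mM NAD+ tracked fluorimetrically for 4 min.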
% is scaled to controls: 0 for no effect and ±100 for the full control effect; potency is read from the fitted curve at half-maximal effect; tags tell the direction and shape of the fitted curve.

UniProt Q99714, sequence (Q99714 whole entry, looked up): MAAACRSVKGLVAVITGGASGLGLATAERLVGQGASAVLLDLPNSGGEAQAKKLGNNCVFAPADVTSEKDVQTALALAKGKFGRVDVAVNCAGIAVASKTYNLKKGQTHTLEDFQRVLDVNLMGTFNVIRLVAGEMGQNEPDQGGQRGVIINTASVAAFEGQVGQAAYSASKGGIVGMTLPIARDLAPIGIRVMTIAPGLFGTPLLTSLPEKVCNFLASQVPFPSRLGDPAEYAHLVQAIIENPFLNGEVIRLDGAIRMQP
UniProt Q99714, sequence (Q99714 whole entry, looked up): as above

Row | Compound | Potency | activity change, negative = inhibition
1 | Cc1onc(-c2ccccc2Cl)c1C(=O)NCc1cccnc1 | inactive | 
2 | Cc1ccc(-n2ncc3c(=O)[nH]c(SCC(=O)N4CCCCC4)nc32)cc1 | inactive | 
3 | CC(C)(C)c1cc(Br)c(O)c(CN(Cc2cc(C(C)(C)C)cc(Br)c2O)C2CCCCC2)c1 | inconclusive: 0.1 µM [inhibitor, full curve, poor fit] | 
4 | C[N+]1(C)C[C@@H](O)C[C@@H]1C(=O)[O-] | inactive | 
5 | COc1ccccc1CNc1ccnc(-c2ccc(N(C)C)cc2)n1 | inconclusive: 31.6 µM [inhibitor, single point] | 
6 | COc1cccc(-c2nc(NC3CC3)c3ccccc3n2)c1 | inconclusive: 39.8 µM [inhibitor, single point] | 
7 | CCOC(=O)c1nc2sc3c(c2c(=O)[nH]1)CCCC3 | active: 31.6 µM | 
8 | C=CCn1c2ccccc2c2nnc(SCCCn3c(=O)[nH]c4ccccc43)nc21 | inconclusive: 39.8 µM [inhibitor, single point] | 
9 | Cc1cccc(N(C)S(=O)(=O)c2ccc3[nH]cc(C(=O)N4CCOCC4)c(=O)c3c2)c1 | inconclusive: 31.6 µM [inhibitor, single point] | 
10 | c1ccc(Nc2nc3ccccc3n3cnnc23)cc1 | inconclusive: 39.8 µM [inhibitor, single point] | 
11 | Cc1ccc(N2CC(C(=O)N3CCCc4ccccc43)CC2=O)cc1 (configuration not stated) | inactive | 
12 | O=C(NCc1ccco1)c1c2c(nc3ccccc13)CCC2 | inconclusive: 39.8 µM [inhibitor, single point] | 
13 | COc1cc(-c2nnc(SCC#CCO)o2)cc(OC)c1OC | inactive | 
14 | CC(=O)[C@]1(O)CC[C@@H]2[C@H]3C[C@@H](C)C4=CC(=O)CC[C@@]4(C)[C@H]3[C@@H](O)C[C@]21C | active: 2 µM | 
15 | Cc1nn(CCc2nn[nH]n2)c2nc(C(F)(F)F)cc(C(F)(F)F)c12 | inconclusive: 39.8 µM [inhibitor, single point] | 
16 | C(=N\n1cnnc1)/c1ccccc1OCCOc1ccccc1 | inactive | 
17 | Cn1c(SCC(=O)c2ccc3c(c2)OCO3)nnc1C1COc2ccccc2O1 (configuration not stated) | inconclusive: 3.98 µM [inhibitor, partial curve] | 
18 | O=C(NCCN1CCOCC1)c1cccs1 | inactive | 
19 | CCC(C)COC(=O)C(C#N)c1nc2ccccc2nc1N1CCCCC1 (configuration not stated) | inactive | 
20 | COc1ccc(COC(=O)N/N=C2/C[C@@H](O)[C@@H](O)[C@@H]3[C@H]4C(=O)N(c5ccc(F)cc5F)C(=O)[C@@H]4CC[C@@H]23)cc1 |  | inactive: 6.07% [at 11.4 µM]
21 | O=C(O)c1cc(S(=O)(=O)Nc2ccc3oc(=O)sc3c2)ccc1O | active: 2 µM | 
22 | O=C(Cc1ccc2c(c1)OCCO2)c1c(O)cc(O)cc1O | inconclusive: 6.31 µM [inhibitor, partial curve] | 
23 | CCn1c(SCC(=O)Nc2ccc(NC(=O)c3ccco3)c(OC)c2)nc2ccccc2c1=O | inactive | 
24 | COCc1[nH]nc2c1C1(C(=O)Nc3ccc(F)cc31)C(C#N)=C(N)O2 (configuration not stated) | inactive | 
25 | COc1cc(-c2nc(S(=O)(=O)c3ccc(Cl)cc3)c(N3CCOCC3)o2)cc(OC)c1OC | inactive | 
26 | CN(C)C(=O)c1ccc(-c2cncnc2NCc2ccccc2)cc1 | inconclusive: 31.6 µM [inhibitor, single point] | 

Row | Compound | Potency | activity change, negative = inhibition
27 | COc1ccc(NC(=O)C(CC(=O)O)Cc2ccccc2)cc1 (configuration not stated) | inactive | 
28 | O=C1CC(c2cccs2)CC2=C1C(c1ccccc1)n1ncnc1N2 (configuration not stated) | inconclusive: 31.6 µM [inhibitor, single point] | 
29 | CCCCCCCC/C=C\CCCCCCCC(=O)O | inconclusive: 15.8 µM [inhibitor, single point] | 
30 | O=C1CC(=O)N(Cc2ccco2)C(=O)N1 | inconclusive: 15.8 µM [inhibitor, partial curve] | 
31 | Cc1cccn2c(=O)c3cc(C(=O)N(C)C)n(C)c3nc12 | active: 20 µM | 
32 | COc1cccc(C(=O)Nc2ccc3nc(N4CCN(c5ncccn5)CC4)cc(C)c3c2)c1OC | inconclusive: 12.6 µM [inhibitor, single point] | 
33 | Cc1nc2sccn2c1-c1csc(NCc2ccccc2)n1 | inconclusive: 15.8 µM [inhibitor, partial curve] | 
34 | COc1ccc(CNc2oc(-c3cccc4ccccc34)nc2C#N)cc1 | active: 25.1 µM | 
35 | N#Cc1cccc(-c2ccc3ncnc(NC4CCNCC4)c3c2)c1 | inactive | 
36 | Cc1cc(-c2ccc(N=Nc3cc(S(=O)(=O)O)c4ccccc4c3N)c(C)c2)ccc1N=Nc1cc(S(=O)(=O)O)c2ccccc2c1N | active: 2 µM | 
37 | NC(=S)NNC(N)=S | inconclusive: 3.16 µM [inhibitor, full curve] | 
38 | CCOc1cc(C2c3c(oc4cc(C)c(Cl)cc4c3=O)C(=O)N2Cc2ccco2)ccc1O (configuration not stated) | inconclusive: 31.6 µM [inhibitor, single point] | 
39 | C[C@@H]1c2ccccc2Cn2cc3c(c21)C(=O)c1cccc(OP(=O)(O)OCc2ccccc2)c1C3=O | active: 3.16 µM | 
40 | C=CCN1CC(c2nc3ccccc3n2CCOc2ccccc2)CC1=O (configuration not stated) | inactive | 
41 | CCN1CCN(Cc2c(O)ccc3c(=O)c(-c4ccc(OC)c(OC)c4)c(C)oc23)CC1 | inconclusive: 25.1 µM [inhibitor, single point] | 
42 | COc1ccc(-c2nnc(-c3ccc(Br)o3)o2)cc1OC | inactive | 
43 | CCOC(=O)Nc1ccc(C(=O)NCC2CCCO2)cc1 (configuration not stated) | inactive | 
44 | CSc1nc(-c2ccco2)nn1S(C)(=O)=O | inconclusive: 31.6 µM [inhibitor, single point] | 
45 | Cc1c(-c2nc(N)nc(C3CC3)c2C)nc(N)nc1C1CC1 |  | inactive: 11.8% [at 11.4 µM]
46 | CC1=C(/C=C/C(C)=C/C=C/C(C)=C/C=O)C(C)(C)CCC1 | inactive | 
47 | C/C=C/Cn1c(SCCCc2ccccc2)nc2c1c(=O)[nH]c(=O)n2C | inactive | 
48 | CS(=O)(=O)Nc1cccc(-c2cncnc2NCc2ccccc2)c1 | inconclusive: 15.8 µM [inhibitor, partial curve] | 
49 | O=C(COc1ccc(S(=O)(=O)NCc2ccccc2)cc1)NCC1CCCO1 (configuration not stated) | inactive | 
50 | C=CCn1c(=O)n(CCOC)c(=O)c2sc3ccccc3c21 | active: 31.6 µM | 
51 | CCOC(=O)C(C(C)=O)c1c(Br)c(O)c(O)c2c(C(=O)c3ccc(C)cc3)coc12 (configuration not stated) | active: 0.501 µM | 
52 | CCCCNC(=O)CC1N=C2c3ccccc3N=C(SCC(=O)Nc3ccccc3C)N2C1=O (configuration not stated) | inconclusive: 25.1 µM [inhibitor, single point] | 

Row | Compound | Potency | activity change, negative = inhibition
53 | CC(C)(C)Cc1nnc(NS(=O)(=O)c2ccc(F)cc2)s1 | inconclusive: 39.8 µM [inhibitor, single point] | 
54 | COc1ccc(-c2nc(C#N)c(NCc3ccc(C)cc3)o2)cc1OC | inconclusive: 31.6 µM [inhibitor, single point] | 
55 | O=C(CCN1C(=O)c2ccccc2C1=O)N1CCN(c2ccccc2)CC1 | inconclusive: 7.94 µM [inhibitor, single point] | 
56 | O=C(Nc1ccc(-c2nc3cccnc3s2)cc1)c1ccco1 | active: 31.6 µM | 
57 | OCc1csc(=Nc2ccccc2)n1-c1ccccc1 | inactive | 
58 | CC(C)(C)N1C(=O)c2ccc(C(=O)NCc3ccco3)cc2C1=O | inactive | 
59 | C[C@@H]1O[C@@H](O[C@@H]2[C@@H](O)[C@H](OCCc3ccc(O)c(O)c3)O[C@H](CO[C@@H]3O[C@H](CO)[C@@H](O)[C@H](O)[C@H]3O)[C@H]2OC(=O)/C=C/c2ccc(O)c(O)c2)[C@H](O)[C@H](O)[C@H]1O | active: 0.1 µM | 
60 | Cc1cc2ccccc2n1CCNC(=O)C(C)C | inactive | 
61 | CCc1nnc(NC(=O)C2Cc3ccccc3CN2S(=O)(=O)c2cccs2)s1 (configuration not stated) | inconclusive: 39.8 µM [inhibitor, single point] | 
62 | COc1ccc(NS(=O)(=O)c2ccc3oc(Nc4ccc5c(c4)OCCO5)nc3c2)cc1 | inconclusive: 15.8 µM [inhibitor, partial curve] | 
63 | Cc1noc(C)c1C(=O)Nc1sc2c(c1C(N)=O)CCCCC2 | inconclusive: 31.6 µM [inhibitor, single point] | 
64 | Cc1cc(C)n(-c2ccc(C(=O)NCc3ccc4c(c3)OCO4)cc2)n1 | inactive | 
65 | O=C(CSC1=Nc2ccccc2C2=NC(CC(=O)NC3CCCCC3)C(=O)N12)NCc1ccco1 (configuration not stated) | inconclusive: 39.8 µM [inhibitor, single point] | 
66 | CC(=O)NCCc1nc2ccccc2[nH]1 | inactive | 
67 | O=C(O)c1cc(-c2ccco2)nc2ccc(Br)cc12 | active: 12.6 µM | 
68 | COc1ccc(C(O)Cc2nc3ccccc3n2C)cc1OC (configuration not stated) | inactive | 
69 | CCC(C(=O)c1ccc(O)cc1)c1ccccc1 (configuration not stated) | inconclusive: 25.1 µM [inhibitor, partial curve] | 
70 | COc1cccc(C2=NOC(C(=O)Nc3cc(C)nn3-c3ccccc3)C2)c1OC (configuration not stated) | inconclusive: 10 µM [inhibitor, partial curve] | 
71 | COCC(=O)Oc1c(S(=O)(=O)c2ccc(C)cc2)c(C)nn1-c1ccccc1 | inactive | 
72 | N[C@H](Cc1cc(I)c(Oc2ccc(O)c(I)c2)c(I)c1)C(=O)O | inactive | 
73 | COc1ccc2c(c1)CCCN2C(N)=O | active: 31.6 µM | 
74 | COc1ccccc1NC(=O)COc1ccc(/C=N/n2cnnc2)cc1OC | inconclusive: 1.58 µM [inhibitor, single point] | 
75 | CCC(C)NC(=O)c1cc(-c2ccc(OC)cc2)on1 (configuration not stated) | inactive | 
76 | CCn1c(-c2ccc(C(C)(C)C)cc2)n[nH]c1=S | inconclusive: 15.8 µM [inhibitor, partial curve] | 
77 | O=C(Nc1ccc2nc(-c3ccco3)c(-c3ccco3)nc2c1)N1CCCCCC1 | active: 2.51 µM | 
